Measured values: PubChem BioAssay AID360 (National Center for Advancing Translational Sciences (NCATS), 2006)
About 550 (1.1%) of roughly 48,000 compounds were called active. Roughly 4% stayed inconclusive and do not appear here. No stated cut-off is given here; in the data, active means potency below about 15 µM; inconclusive means mostly about 16 µM to 33 µM; inactive means weaker than that. The list shows a part of the results.

target: Lysosomal acid glucosylceramidase (Homo sapiens) (UniProt P04062); test: Glucocerebrosidase; details: purified enzyme, resorufin glucoside fluorescence (screen aimed at inhibitors), 20 min;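 further: the screen sought inhibitors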
UniProt P04062, sequence (P04062 whole entry, looked up): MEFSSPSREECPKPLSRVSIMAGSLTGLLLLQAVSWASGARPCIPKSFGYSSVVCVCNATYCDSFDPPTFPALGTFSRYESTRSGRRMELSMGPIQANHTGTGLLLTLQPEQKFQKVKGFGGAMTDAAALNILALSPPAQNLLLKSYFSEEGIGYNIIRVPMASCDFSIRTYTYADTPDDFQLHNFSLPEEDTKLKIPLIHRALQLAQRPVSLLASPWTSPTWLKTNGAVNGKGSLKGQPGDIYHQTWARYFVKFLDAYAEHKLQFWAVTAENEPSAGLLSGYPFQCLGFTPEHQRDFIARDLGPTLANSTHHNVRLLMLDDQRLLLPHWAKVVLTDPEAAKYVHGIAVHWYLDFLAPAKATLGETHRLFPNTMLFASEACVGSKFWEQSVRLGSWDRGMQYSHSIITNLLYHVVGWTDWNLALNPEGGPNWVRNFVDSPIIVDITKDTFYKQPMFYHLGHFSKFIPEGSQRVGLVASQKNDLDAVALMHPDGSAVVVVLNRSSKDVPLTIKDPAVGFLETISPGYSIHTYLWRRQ
Procedure, shortened: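 Normal human glucocerebrosidase (0.2 nM final) was assayed with resorufin β-D-glucopyranoside (30 uM final) in 50mM citric acid/KH2PO4, 10mM sodium taurocholate, 0.01% tween-20, pH 5.9. Compounds were titrated; fluorescence (Ex 548, Em 600) read after 20 min at RT.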
Potency means the concentration at half of the fitted maximal effect.

SMILES | Potency
Nc1nonc1C(=O)NC(c1ccccc1)c1ccccc1 | inactive: > 76.9 µM
CCOc1cc(C(=O)O)cc(Cl)c1OCC#N | inactive: > 76.9 µM
CC1CN(C(=O)CN2C(=O)NC3(CCCCCCC3)C2=O)CC(C)O1 (stereo unspecified) | inactive: > 76.9 µM
COC(=O)c1c(C(=O)OC)c(C)n(Cc2cccnc2)c1C | inactive: > 76.9 µM
CCCn1nnc(NC(=O)C(C)Oc2ccc(Cl)cc2Cl)n1 (stereo unspecified) | inactive: > 76.9 µM
Oc1ccc(Oc2ncc(Cl)cc2Cl)cc1 | inactive: > 76.9 µM
CCOC(=O)c1cn(CC(=O)Nc2ccccc2C(=O)OCC)nn1 | inactive: > 76.9 µM
COc1ccc(NC(=O)C2CCCN2C(=O)NC2CCCCC2)cc1OC (stereo unspecified) | inactive: > 76.9 µM
CCOC(=O)c1c(N)sc(C(=O)N(C)C)c1C | inactive: > 76.9 µM
COc1ccc(NC(=O)c2oc3ccccc3c2NC(=O)c2ccc3c(c2)OCO3)cc1 | inactive: > 76.9 µM
CCC(=O)Nc1nc(C)c(C(=O)N2CCCCC2)s1 | inactive: > 76.9 µM
N#CC1=C(N)OC2=C(C(=O)CCC2)C1c1ccc(OC(=O)N2CCOCC2)cc1 (stereo unspecified) | inactive: > 76.9 µM
CCNC(=O)c1ccccc1-c1nc(-c2ccccc2Cl)no1 | inactive: > 76.9 µM
O=C(CSc1ncn[nH]1)Nc1ccc(Br)cc1F | inactive: > 76.9 µM
O=c1[nH]c2ccccc2n1C1=CCCC1 | inactive: > 76.9 µM
O=C1OCCN1CCN(CN1C(=O)CCC1=O)CN1C(=O)CCC1=O | inactive: > 76.9 µM
CCCCN(CCCC)C(=O)CCS(=O)(=O)c1ccc2c(c1)n(C)c(=O)c(=O)n2C | inactive: > 76.9 µM
CC(C)N1C(=S)SC2CS(=O)(=O)C=C21 (stereo unspecified) | inactive: > 76.9 µM
COc1ccc(Cc2nnc(NC(=O)c3ccco3)s2)cc1OC | inactive: > 76.9 µM
COc1ccc(CCNC(=O)C(C)OC(=O)c2ccco2)cc1OC (stereo unspecified) | inactive: > 76.9 µM
Cc1cnn(Cc2ccccc2)c1N | inactive: > 76.9 µM

SMILES | Potency
CC(c1ccccc1)n1cc(C(=O)NCc2ccncc2)nn1 (stereo unspecified) | inactive: > 76.9 µM
COCCNC(=O)C(C)OC(=O)c1cc2occc2n1C (stereo unspecified) | inactive: > 76.9 µM
O=C(COc1nncc2ccccc12)NCCC1=CCCCC1 | inactive: > 76.9 µM
C=CCn1cnc2c(c1=O)c1nc3ccccc3nc1n2/N=C/c1cccc(OC)c1OC | active: 6.6 µM
COc1ccc2[nH]c(=O)c(CN(CC3CCCO3)C(=O)Nc3ccccc3OC)cc2c1 (stereo unspecified) | inactive: > 76.9 µM
O=C(NCc1ccco1)c1cccc(NC(=O)c2ccccc2)c1 | inactive: > 76.9 µM
Cc1ccc2cc(CN(Cc3ccc(F)cc3)Cc3nnnn3C3CCCC3)c(=O)[nH]c2c1 | inactive: > 76.9 µM
O=C(NCc1cccs1)C1CCCN(S(=O)(=O)c2ccc(Br)s2)C1 (stereo unspecified) | inactive: > 76.9 µM
CCN1CCN(Cc2cc(=O)oc3cc(C)cc(C)c23)CC1 | inactive
COC(=O)Cc1c(C)nc2nc(-c3ccc(OC)cc3)[nH]n2c1=O | inactive: > 76.9 µM
O=C1OC(N2CCN(c3ccccn3)CC2)c2ccccc21 (stereo unspecified) | inactive: > 76.9 µM
C=CCSC1=C(C#N)C(c2ccccc2OC)CC(=O)N1 (stereo unspecified) | inactive: > 76.9 µM
CCOc1ccc(C(C)=O)cc1COC(=O)C1=COCCO1 | inactive: > 76.9 µM
CC(=O)N1CCc2cc(S(=O)(=O)NCCC(=O)Nc3cccc(C)c3C)ccc21 | inactive: > 76.9 µM
CCOc1cc(C(=O)NCc2nnc(SCC(=O)OC)n2C)cc(OCC)c1OCC | inactive: > 76.9 µM
Clc1ccc(SCCn2cncn2)cc1 | inactive: > 76.9 µM
COc1ccc(-c2nc(C#N)c(NCCc3ccccc3)o2)cc1 | inactive: > 76.9 µM
CC(c1ccccc1)C1CC(=O)N(c2ccc(C(=O)O)cc2)C1=O (stereo unspecified) | inactive: > 76.9 µM
COc1ccccc1NC(=O)CSc1nc(N)cc(N)n1 | inactive: > 76.9 µM
COc1ccc(OC)c(N)c1 | inactive: > 76.9 µM
Cc1ccc(-n2ncc3c(=O)n(CC(=O)N4CCCc5ccccc54)cnc32)cc1C | inactive: > 76.9 µM

SMILES | Potency
O=C(O)CCNS(=O)(=O)c1ccccc1 | inactive: > 76.9 µM
O=C(NCCN1C(=O)CSC1=O)c1ccccc1 | inactive: > 76.9 µM
N#Cc1nc(COc2ccc(Cl)cc2Cl)oc1N1CCOCC1 | inactive: > 76.9 µM
CC(=O)CC(C)=NCCN=C(C)CC(C)=O | inactive: > 76.9 µM
Cc1cc(O)c(C2(C(F)(F)F)NCCNC2=O)cc1C (stereo unspecified) | inactive: > 76.9 µM
O=C1CC(NCc2ccco2)C(=O)N1CCc1ccccc1 (stereo unspecified) | inactive: > 76.9 µM
CN=CC1=C(O)CC(C)(C)CC1=O | inactive: > 76.9 µM
CCN1CCN(C(=O)c2sc3nc(C)nc(N4CCC(C)CC4)c3c2C)CC1 | inactive
O=C(O)CCCNc1cc(N2CCC3(CC2)OCCO3)c2noc3c2c1C(=O)c1ccccc1-3 | active: 11.8 µM
Cc1cc(NC(=O)Cn2c(=O)n(Cc3ccccc3)c(=O)c3ccccc32)no1 | inactive: > 76.9 µM
Cc1ccc2c(c1)CCCN2C(=O)c1ccc2c(c1)OCO2 | inactive: > 76.9 µM
CCn1c(=O)cc(SCC(=O)NCc2ccco2)c2ccccc21 | inactive: > 76.9 µM
Cc1cc(C)cc(N(CC(=O)NC2CCCCC2)C(=O)CCC(=O)Nc2cc(C)ccn2)c1 | inactive: > 76.9 µM
CC(=O)c1cc2c(cc1NC(=O)CN1CCCCC1C)OCO2 (stereo unspecified) | inactive: > 76.9 µM
COc1ccc(-c2nc(=S)c3c(n2CCN2CCOCC2)CC(C)(C)OC3)cc1 | inactive: > 76.9 µM
Cn1c(SCc2ccc(F)cc2)nnc1-c1cccs1 | inactive: > 76.9 µM
COC(=O)c1ccccc1NC(=O)C1CC(c2ccccc2O)=NO1 (stereo unspecified) | inactive: > 76.9 µM
COC(=O)c1ccc(S(=O)(=O)N2CCCC2)o1 | inactive: > 76.9 µM
CCOC(=O)CSc1nnc(CNC(=O)c2cccs2)n1Cc1ccccc1 | inactive: > 76.9 µM
